From the supplement of paper PMC4466236
Whole data set: some 33,000 sequences, median “E-score (dimensionless, -0.5 to 0.5)” near -0.058, cut for the highest 2% near 0.35. The list shows a part of the results.

test system: MvaT; assay: PBM 8-mer E-score (mean of HK and ME arrays) (E-score (dimensionless, -0.5 to 0.5)); higher = stronger relative binding preference; most listed sequences are background and not binding sites
In short: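 Full-length P. aeruginosa MvaT carrying an N-terminal glutathione S-transferase tag was tested by protein binding microarray following a previously described protocol. Two universal double-stranded 60-mer arrays, ME and HK, were used, each with a constant 25-mer primer region and a variable 35-mer region covering all 8-mers. The rank-based E-score is the mean of the two arrays, parsed with a custom script. Its range runs from -0.5 to 0.5 for each 8-mer.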

Sequence	PBM 8-mer E-score
CGGCCTCA	-0.214
GAATTAGA	0.106
ACACTTTG	0.0598
GAGACCAC	-0.107
CGATCGGA	-0.143
AGTTTGTA	0.299
CCGACTCA	0.00996
CAAGAGTA	0.023
ATTTGAAG	0.229
GACCTACC	-0.136
ATATCGAC	0.202
CGTATTCA	0.121
CGATTACG	-0.0865
ATACCAGC	0.076
AGGTTGAT	-0.0683
AGCAGATG	-0.0501
CCATTTCA	0.0114
CGCGACTC	-0.0414
TATAGAGA	0.155
CGTGACAC	-0.251
AAAGCGGG	0.0158
AATCGAAA	0.226
GCAACGAC	-0.141
CTCATGTA	0.156
GCTAACTA	0.16

Sequence	PBM 8-mer E-score
AGTACGAG	0.0471
AACGGCGT	-0.0798
CGACTTAG	-0.0985
ACCAAACG	-0.121
ACTCCAGT	-0.0776
GAGTTTAC	0.141
CTACTGTC	0.0058
ACTAACAT	0.322
GCCCCTTA	-0.239
GCCCTAAA	0.0588
ACTCTTCG	-0.157
AATTATCG	0.336
TGCGCACA	-0.029
TACTAGTA	0.269
ATATTACC	0.293
GAGGTCCC	-0.236
CAGCCGCC	-0.157
ACTAGAGC	-0.14
ACATAGGA	0.178
GCTCTCGA	-0.0844
GAGTTCGA	-0.115
AATCGGGG	-0.0645
AATATAGC	0.343
AGAAGAAA	-0.0887
GCTAGCAA	-0.0545

Sequence	PBM 8-mer E-score
CGCGGGGC	-0.171
ACGCGTGG	0.0418
CCAGACGC	-0.141
CAACTAAC	0.196
CCTATGGA	-0.202
GCGGAGGA	-0.291
AAACGGAA	0.163
CCTGGTGC	-0.135
CCAGATAA	0.165
GGCATTTA	0.0577
AACCTAAC	0.179
AAGGTGGG	-0.155
TGCCCAAA	0.0537
CAACCGGC	-0.178
ATTAGCTA	0.107
ATTCGCCC	-0.0494
ATAGCGCC	-0.0591
CAAGCAGA	-0.0444
ATGTGTAC	0.0955
ATGAGCTG	-0.246
AGCACTAC	-0.0935
AAGTGCCT	-0.163
AACGCGCA	0.101
ACTGCTGA	-0.0941
ACAAACCA	0.185

Sequence	PBM 8-mer E-score
AAATGAAG	0.151
CTAAGCCA	-0.0776
CTGAGTAA	-0.0888
ATAATAAC	0.422
ACTCCACG	-0.133
ATACCCTG	-0.022
AGAATAAG	0.252
GCCATCTA	-0.115
CCTGTAGA	-0.101
AGATCAAA	0.0337
CCGTTAAC	0.0566
GGGCCGCA	-0.152
AGTCCCAG	-0.0827
AAAAAATT	0.153
ACCAAGCT	-0.11
CATGTTGG	0.0133
GGCAATCA	0.0212
CACCAGGG	-0.259
ACGAGTAT	0.141
AGTTGGAC	-0.145
CTCCTTGA	-0.199
CAACTGTC	-0.0355
ATACTTCC	0.155
CCGAGGCC	-0.225
CGATCTGC	-0.0964

Sequence	PBM 8-mer E-score
GCGAGGTA	-0.119
GTCGATGA	-0.185
GACTGGGC	-0.329
GAATACTC	0.00428
ACGTGGGG	-0.199
ATACGAGA	0.095
CTCTGCTC	-0.211
AGCTTAAT	0.171
AGTCAGCA	-0.0242
ACAGGGGA	-0.231
CCTTGTCC	-0.26
TACGTGGA	-0.108
CGTTGAAG	-0.066
ATACTTGC	0.289
GCGAGTAC	-0.117
CCTCTAGA	-0.0339
CGGGTGGC	-0.108
CCGTGACA	-0.0782
AGGCTTTG	-0.0107
GTATCTGA	0.0532
AGGTCATG	-0.127
GATCTGTA	0.0527
ATGCTCGG	-0.19
TTAGTCAA	0.221
AGGTCAGA	-0.187

Sequence	PBM 8-mer E-score
AAACGTCT	-0.0815
CGTTGTCA	0.00477
AAGTGGAT	-0.0311
CTCCCGGC	-0.273
CTCTCTGA	-0.148
CTAACCGA	-0.00329
CATTGTTA	0.157
ATCTTGTC	-0.0194
CCTTCGCG	-0.271
CGCATGGA	-0.258
CATTATGG	0.14
GGAACCCA	-0.163
CATTCCAG	-0.269
ATGTGGCC	-0.206
AGTGTGGC	0.00691
AGAAGGAG	-0.258
ATGGCCGG	-0.171
CCCGCTCA	-0.213
GAGTGATA	0.242
AACGCCAA	0.0416
AGCAATCG	-0.0963
CAATTGGG	-0.0128
GACTGGCA	-0.25
ACCCAATC	-0.0955
AGAACCAA	-0.0552

Sequence	PBM 8-mer E-score
AGGATTGA	-0.172
CTGGGCGC	-0.305
GCCATTCC	0.00899
ATTCTGTG	0.0582
GGCTTCTA	-0.102
ACACCACC	0.122
CCTTCATC	-0.241
GGTATAAA	0.339
GAATGCTA	0.0872
GACCGCTA	-0.115
TAACATAA	0.303
ACTACTTC	0.117
CAGTCTAC	-0.158
CGGCAACC	-0.244
AGGGAAAT	0.13
AGGCGCAG	-0.186
GATATATA	0.469
CGCTATGC	-0.174
TGCTCTAA	-0.0282
CAAAACCG	-0.0133
GATCGAGA	0.00421
CGACACAC	-0.135
AGACAGAG	-0.149
ATGCAGCC	-0.192
CGGAATGA	-0.2

Sequence	PBM 8-mer E-score
AAGCGAGG	-0.187
ATACGGTC	0.0722
ATTGCGCA	0.111
ATTGGTTC	0.012
TACCACGA	0.0575
CGAAGCTC	-0.289
GGACTCGA	-0.185
CGCTCCGA	-0.206
ACAATGGA	-0.0253
ACGCTTCC	-0.238
CGACTGAA	0.0892
CTGTACTC	-0.163
ACCCCCCA	-0.358
AATCCGAC	-0.0943
CGTACTAA	0.206
AGTGGGCG	-0.217
GAAAGATA	0.195
GGTGGCCA	-0.194
TCTATACA	0.136
CAAGCGTG	-0.266
GACTAAAC	0.102
ATCAGATA	0.0399
CGGATAGA	-0.03
CCCACAGA	-0.149
GTGGTGGA	-0.159

Sequence	PBM 8-mer E-score
AGACTAGG	-0.127
ATCTTAGG	-0.216
AACCTCGT	-0.00218
GGTACCTA	-0.0911
CGATTAGA	0.00897
AGCTCGAC	-0.225
CCCAGGCC	-0.273
ATTACCTA	0.113
AGTTATAG	0.316
ATCTTCCA	0.0882
GCGACTAA	-0.0929
CGGTTGTC	-0.114
ATATCTAC	0.233
GCCTGTAA	0.0748
CTTGGCCA	-0.109
ACGTTTGA	0.0427
CTTGGCAC	-0.232
GCCAGAAC	-0.0482
CGGGTAGC	-0.17
ATATAGCC	0.0877
GAAAGAAC	0.11
ACGGGGAC	-0.216
CGTTGACA	-0.194
AGCTTTAC	-0.00475
AGGAAGAA	-0.00696

Sequence	PBM 8-mer E-score
AGATAACC	-0.021
ACTACCAA	0.0803
ACCGCGGA	-0.226
GCCCAGCA	-0.178
AGTGAGAG	0.0213
CAGAGACG	-0.193
ATGATAAT	0.292
ATGCTCGA	-0.0665
CCGTCCCA	-0.189
CACAAGTC	0.044
GGCCTGGA	-0.19
AAACATGA	0.249
TCTCTTAA	0.169
ACCGGTAG	-0.0729
ACGGATAC	-0.0502
CTTTGACA	-0.0224
CACCAGCC	-0.0802
CTTCGCAA	-0.0532
GGGCCATA	-0.0688
TATAGCGA	0.113
GCTCATAA	0.0536
ATCAGGTC	-0.0455
AATAATCG	0.309
AGTGTCCC	-0.219
GATGGGTA	0.0251

Sequence	PBM 8-mer E-score
AAAGTGGC	-0.028
GCTTCGAA	0.0154
CTGCGCGA	-0.1
ATATGTGG	0.181
AGACAACT	0.0929
AATTCGGC	0.13
GCCTTTAA	0.0394
GAGAGAGA	-0.0661
CGTCATAC	-0.0691
ACTTTGCT	0.134
CGGGTTAC	-0.0734
TAAGGTAA	0.122
GCTGCAGC	-0.279
GCGGATTA	0.119
CGCTAGAG	-0.0936
AACGGATC	-0.117
CGATTAGC	-0.186
ATCATTCA	0.138
GAGGTGTA	0.00609
CAAGGGTG	-0.255
GGAACGAA	-0.101
ACCCCTTA	-0.0583
GTGTAAGA	0.137
CTAGAGAG	-0.241
CTACCGTC	-0.264

Sequence	PBM 8-mer E-score
CTTCAGGC	-0.271
AGATTGCA	0.0485
CGTAGATA	0.0948
CCGGGCAA	-0.208
ATATAATG	0.402
ACTGTGGG	-0.129
CACCAGTC	-0.0178
ATCGTAGG	-0.11
GCGACACA	-0.00753
GTGTCGCA	-0.184
GGGAGACA	-0.185
AATGTGCC	0.0164
GCGTTACC	-0.109
CCGCGAGC	-0.177
CGAGTGAC	-0.244
CCCGCGTC	-0.126
GAGTAGCC	-0.284
TCCTTTAA	-0.000171
CGCGGATC	-0.168
CGCACAGC	-0.0754
AACGGTAT	-0.0447
CCTGCATA	0.0536
CCCAGTAC	-0.175
AGGACTTA	0.0588
AATGGGTA	0.138

Sequence	PBM 8-mer E-score
GCCCCTCC	-0.347
ATGGGGAA	-0.0795
GTGATCAC	0.00942
AATCGACC	-0.0472
AGTTCCCC	-0.0538
AAGTAAGG	0.216
AAAGCATC	-0.137
TACTCGAA	0.189
GGTAAACA	0.12
AAATCTGG	0.00259
AGCTGAAC	-0.2
AAGGGGGC	-0.264
AGTGAAGC	-0.294
AAAGCGGA	-0.0665
CATCCGAA	-0.085
CGGCCGTC	-0.233
CACTGCCC	-0.21
AGGCGGCG	-0.263
CTTGGAGC	-0.218
GCACCTCC	-0.323
CATGGAGC	-0.21
GCCGTATA	0.01
ACTATCCC	0.037
CGGGTAAG	-0.0672
CGTTAAAA	0.295

Sequence	PBM 8-mer E-score
AAGAGCGC	-0.074
ACCCCCGG	-0.291
GGAACACA	-0.0728
GTGCCACA	-0.196
ATGTTGCA	0.175
AAAGGTCA	-0.0376
TACAATAA	0.328
GGGACGAC	-0.0537
AGCGACGA	-0.0547
TACCATAA	0.271
CCTAACCA	-0.103
AGAGACCG	-0.221
GCCCAATA	-0.00417
ATTGTCAC	0.0554
CCCCGCTA	-0.303
GGTCGTTA	-0.0413
GGGTAGCA	-0.213
TCACCAGA	-0.0169
TACTAGGA	0.0708
